# Measured values from PubChem BioAssay AID485294 (National Center for Advancing Translational Sciences (NCATS), 2010).
# The whole screen tested about 370,000 compounds, of which about 150 (0.041%) were called active. The shares of active, inactive and inconclusive entries below differ from those in the screen. Calls follow the shape of the dose curve; as a rule, active = well fitted inhibition curve with a large enough effect; inconclusive = small, poorly fitted or top-dose-only effect; inactive = flat fitted curve, though single readings scatter. Potencies of inconclusive entries are left out as doubtful fits.
# Molecular target: Beta-lactamase (Escherichia coli (strain K12)) (UniProt P00811)
# Assay: qHTS Inhibitors of AmpC Beta-Lactamase (assay with detergent); also: nearly all actives have a fitted effect of over 25% in size;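 as to activity change, negative = inhibition: 0% = no-compound wells and -100% = no-enzyme wells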
# Details: AmpC hydrolysis of nitrocefin, absorbance 480 nm, 0.01% Triton; activity change, negative = inhibition: at 114 µM (top of the series)
# Outline: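 AmpC (5.3 nM in the dispensed reagent) in 20 mM phosphate pH 7.0 with 0.01% (detergent screen) or 0.0001% Triton X-100 was preincubated with compounds for 15 min at room temperature. Nitrocefin was then added from an 800 uM solution, and hydrolysis was followed at 480 nm.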
# Potency is read from the fitted curve at half-maximal effect; tags tell the direction and shape of the fitted curve.
# Sequence of UniProt P00811 (P00811 whole entry, looked up): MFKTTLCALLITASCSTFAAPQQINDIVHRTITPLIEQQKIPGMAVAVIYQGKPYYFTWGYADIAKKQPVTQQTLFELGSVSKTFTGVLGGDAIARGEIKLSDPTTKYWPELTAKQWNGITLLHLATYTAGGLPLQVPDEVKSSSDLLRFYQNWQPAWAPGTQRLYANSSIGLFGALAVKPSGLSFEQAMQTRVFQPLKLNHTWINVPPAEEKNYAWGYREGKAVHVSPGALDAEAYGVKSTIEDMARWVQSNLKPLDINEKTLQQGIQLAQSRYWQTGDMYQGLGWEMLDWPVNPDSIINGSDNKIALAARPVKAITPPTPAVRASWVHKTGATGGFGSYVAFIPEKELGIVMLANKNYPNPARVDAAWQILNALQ
Compound,Potency,"activity change, negative = inhibition"
CCc1ccc(-c2cc(-c3n[nH]c(=S)n3CC)c3ccccc3n2)cc1,"inconclusive [inhibitor, partial curve, poor fit]",
Cc1ccc(NC(=O)CN2C(=O)/C(=C3\SC(=S)N(C4CCS(=O)(=O)C4)C3=O)c3ccccc32)cc1 (stereo unspecified),"inconclusive [inhibitor, single point]",
COc1ccc(NC(=O)c2cncc(Br)c2)c(S(=O)(=O)N2CCOCC2)c1,"inconclusive [inhibitor, full curve, poor fit]",
CCN(CC)S(=O)(=O)c1ccc(-c2nnc(SCC(C)=O)o2)cc1,,inactive: -12.9%
CSc1cccc(NC(=O)CN(C)S(=O)(=O)c2ccc3c(c2)CCCN3C(C)=O)c1,,inactive: 1.3%
COc1cc(C2C(C(=O)c3sc(C)nc3C)=C(O)C(=O)N2CCN(C)C)cc(OC)c1OC (stereo unspecified),"inconclusive [inhibitor, full curve]",
CCN1CCN(Cc2coc3ccc(C)cc3c2=O)CC1,,inactive: -10.6%
CCN(C(=O)c1ccc2c(=O)n3c(nc2c1)CCCCC3)c1cc(C)ccc1C,,inactive: 7.41%
Cc1ccc(S(=O)(=O)NC(=O)NCc2ccccn2)cc1,"inconclusive [inhibitor, full curve]",
O=C1COc2ccc(-c3cc(-c4ccc(F)cc4)c4c(n3)-c3ccccc3OC4)cc2N1,,inactive: -1.71%
Cc1ccc(C(=O)Nc2nc(C)c(C)s2)o1,,inactive: 0.71%
O=C(NC(=S)N1CCN(C/C=C/c2ccccc2)CC1)c1cccnc1,,inactive: 0.898%
COC(=O)CSc1cc(C(=O)c2nccn2C)c2ccccc2n1,"inconclusive [inhibitor, full curve]",
COc1cccc(CSc2nc(-c3ccccc3OC)nc3c2Cc2c(CO)cnc(C)c2O3)c1,,inactive: -0.698%
CC1CN(S(=O)(=O)N2CCOCC2)CCN1S(=O)(=O)N1CCOCC1 (stereo unspecified),"inconclusive [inhibitor, single point]",
COc1ccccc1CNC(=O)c1cc(-c2cccnc2)nc2ccccc12,"inconclusive [inhibitor, full curve, poor fit]",
CCC1(C)Cc2c(sc(NC(=S)NC(=O)c3ccccc3)c2C#N)CO1 (stereo unspecified),,inactive: -14.4%
COc1cc(Br)cc(Br)c1OCC(=O)N/N=C/c1c(C)n(C)n(-c2ccccc2)c1=O,"inconclusive [inhibitor, full curve, poor fit]",
C/C(CCC(=O)OC[C@H]1O[C@H](C#Cc2ccccc2)C=C[C@@H]1Oc1ccc(C)cc1)=N\O[C@@H](C)CN1CCCCc2nc(C)c(C)cc21,,inactive: 1.46%
CCCc1ccc(OCc2ccc(C(=O)Nc3cccc(C)n3)o2)c(OC)c1,"inconclusive [inhibitor, full curve, poor fit]",
COc1ccc(-c2nc3ccccn3c2/N=C/c2ccc(OC)c(OC)c2)cc1O,,inactive: 3.22%
CN(C)C(=O)N=NC(=O)N(C)C,"inconclusive [inhibitor, partial curve]",
COC(=O)c1ccc(NC(=O)CN(c2cccc(C(F)(F)F)c2)S(C)(=O)=O)cc1,,inactive: 1.99%
Cc1ccccc1S(=O)(=O)Cc1ccc(C(=O)N2CC(C)CC(C)C2)o1 (stereo unspecified),"inconclusive [inhibitor, partial curve]",

Compound,Potency,"activity change, negative = inhibition"
CC1=C(C(=O)Nc2ccccc2)C(c2ccco2)NC(=S)N1 (stereo unspecified),"inconclusive [inhibitor, full curve]",
O=C(COc1ccc(S(=O)(=O)NC2CCCCC2)cc1)NC1CCCCC1,,inactive: 1.56%
CCC1CCC(C(=O)NC(C(=O)NCCCN2CCCCC2C)C(C)C)CC1 (stereo unspecified),"inconclusive [inhibitor, partial curve]",
CCOc1ccccc1CNC(=O)CCn1cccn1,,inactive: -5.84%
COc1cc(O)c(C(CC(=O)N2CCOCC2)c2ccc(N(C)C)cc2)c(OC)c1 (stereo unspecified),,inactive: -6%
O=C(CCCCC(=O)NCCCc1ccccc1)NCCCc1ccccc1,"inconclusive [inhibitor, full curve, poor fit]",
CCOC(=O)C1(CCc2ccccc2)CCN(C(=O)CN2C(=O)CSC2=O)CC1,,inactive: -3.56%
O=C(Nc1c(C(=O)C2CC2)oc2ccccc12)c1ccc(Cl)cc1,"inconclusive [inhibitor, single point]",
CCc1cc(=O)[nH]c(-n2[nH]c(-c3ccccc3)cc2=O)n1,,inactive: -3.33%
COc1cccc(NC(=O)N2CCC(NC(=O)C(Cc3ccccc3OC)NC(C)=O)CC2)c1 (stereo unspecified),,inactive: -10.1%
COc1ccc(NC(C)=O)cc1NC(C)C(=O)Nc1ccccc1F (stereo unspecified),"inconclusive [inhibitor, partial curve]",
CCOc1cc(C(=O)Nc2ccon2)cc(OCC)c1OCC,"inconclusive [inhibitor, full curve, poor fit]",
Cc1ccc(NC(=O)COCc2cc(-c3cccs3)on2)cc1Cl,,inactive: 3.93%
COCC(=O)NC1CCN(C(=O)NCc2ccccc2)CC1,"inconclusive [inhibitor, full curve]",
COc1ccc(NC(=O)CN(C)S(=O)(=O)c2cccc3cccnc23)cc1,"inconclusive [inhibitor, full curve, poor fit]",
O=C(O)c1cccc(Nc2ccnc(Nc3cccc(C(=O)O)c3)n2)c1,"inconclusive [inhibitor, partial curve, poor fit]",
COc1ccc(OCc2nnc(SCC(=O)NC3CC4CCC3C4)o2)cc1 (stereo unspecified),,inactive: -1.3%
CCCCOc1ccc([N+](=O)[O-])cc1C(=O)O,"inconclusive [inhibitor, full curve, poor fit]",
CCc1cc2c(NCC3CCCO3)ncnc2s1 (stereo unspecified),"inconclusive [inhibitor, partial curve, poor fit]",
COCCN(C(=O)COc1ccccc1)c1nnc(-c2cccnc2)s1,"inconclusive [inhibitor, full curve, poor fit]",
COc1cccc(S(=O)(=O)NCc2ccc(C(=O)NCc3ccco3)cc2)c1,"inconclusive [inhibitor, full curve]",
CCCCC(c1nnnn1CCOC)N1CCN(c2cccc(OC)c2)CC1 (stereo unspecified),"inconclusive [inhibitor, partial curve]",
Cc1ccc(C)c(N2CCN(C(=O)C3CCCN(S(=O)(=O)c4cnc[nH]4)C3)CC2)c1 (stereo unspecified),"inconclusive [inhibitor, full curve, poor fit]",
COc1ccc(C)cc1-n1nnnc1SCC(=O)NC1CCCC1,"inconclusive [inhibitor, partial curve]",

Compound,Potency,"activity change, negative = inhibition"
COc1cccc(-n2nnnc2SCC(=O)Nc2nc3c(s2)CCCC3)c1,"inconclusive [inhibitor, full curve, poor fit]",
COc1cc(-c2nn3c(-c4cccnc4)nnc3s2)cc(OC)c1OC,"inconclusive [inhibitor, full curve, poor fit]",
Cc1cc(OCc2cc(C(=O)N(C)C3CCOC3)no2)cc(C)c1Cl (stereo unspecified),,inactive: -3.39%
CC(C)CNS(=O)(=O)c1ccc(CCC(=O)NCc2ccco2)cc1,,inactive: -1.27%
O=C(C1CCCN(S(=O)(=O)c2cccs2)C1)N1CCC(N2CCCCC2)CC1 (stereo unspecified),"inconclusive [inhibitor, full curve]",
CCCSc1ccc(-c2nn(-c3ccccc3)cc2/C=C(/C#N)C(=O)N2CCOCC2)cc1,"inconclusive [inhibitor, full curve, poor fit]",
COc1cc(/C=C2\N=C3CCCCCN3C2=O)ccc1O,,inactive: -9.52%
O=C1c2cc(Cl)ccc2OC2(CCNCC2)C12CC(c1ccc(Cl)cc1)=NO2 (stereo unspecified),"inconclusive [inhibitor, full curve, poor fit]",
CCCCSc1nnc2c(n1)OC(c1ccc(C)s1)Nc1ccccc1-2 (stereo unspecified),,inactive: 23%
COC(CNC(=O)[C@H](CSCc1ccccc1)N1Cc2ccccc2C1=O)OC,"inconclusive [inhibitor, single point]",
O=[N+]([O-])c1cc(S(=O)(=O)C(F)(F)F)ccc1NCC1CCCO1 (stereo unspecified),"inconclusive [inhibitor, full curve, poor fit]",
Cc1ccc(C(=O)n2cnnc2N)cc1,"inconclusive [inhibitor, partial curve]",
CCOc1ccc(N(CC(=O)Nc2ccc(C)cc2)S(=O)(=O)c2c(C)noc2C)cc1,"inconclusive [inhibitor, full curve]",
O=C(NCCNC(=O)c1cc(Cl)ccc1Cl)c1ccccn1,"inconclusive [inhibitor, single point]",
O=C(CSc1nnc(-c2ccncc2)o1)Nc1ccc(F)c(F)c1,"inconclusive [inhibitor, full curve, poor fit]",
CCCCOc1cccc(C(=O)Nc2ccc(NC(=O)c3cccs3)cc2)c1,"inconclusive [inhibitor, partial curve, poor fit]",
CCOC(=O)Cc1c(C)nc2c(-c3cccc(Br)c3)cnn2c1C,,inactive: -0.549%
O=C(Nc1ccncc1)c1ccc(Cl)c(Cl)c1,,inactive: -4.72%
N#Cc1nc(-c2ccc(Cl)cc2)oc1NCCc1ccccn1,,inactive: 3.63%
Cc1ccc(O)c([C@H](CCN(C(C)C)C(C)C)c2ccccc2)c1,,inactive: 6.15%
Nc1c(-c2nc(-c3ccccc3Cl)no2)nnn1-c1ccccc1F,,inactive: 23%
C[C@@H]1CCC[C@@]2(O[C@H](CCO)C[C@@H](O)[C@@H]2O)O1,"inconclusive [inhibitor, full curve, poor fit]",
C/C=C(\C)C(=O)Nc1cccc(C2=NOC3(C2)C[C@@H](C(N)=O)N(C(=O)/C(C)=C/C)C3)c1 (stereo partly specified),,inactive: -4.8%
